Whole data set: some 81,000 sequences, median “one-hybrid fitness for binding NBS DNA” near -0.1, cut for the highest 2% near 0.36. The list shows a part of the results.
B1: Caulobacter ParB omega fusion; a variant is named by its letters at X, in order, B8GW30 (parent)
chain: MESVVVGEPGMSEGRRGLGRGLSALLGEVDAAPAQAPGEQLGGSREAPIEILQRNPDQPRRTFREEDLEDLSNSIREKGVLQPILVRPSPDTAGEYQIVAGERAWRAAQRAGLKTVPIMVRELDDLAVLEIGIIENVQRADLNVLEEALSYKVLMEKFERTQENIAQTIGKSXSHVANXMRLLXLPDEVQSYLVSGELTAXHARAIAAAADPVALAKQIIEGGLSVRETEALARKAPNLSAGKSKGGRPPRVKDTDTQALESDLSSVLGLDVSIDHRGSTGTLTITYATLEQLDDLCNRLTRGI

Variants of: B1
Assay: one-hybrid fitness for binding NBS DNA (the Noc-binding site; scaled: cognate 1, non-cognate 0); higher = stronger binding
Details: with NBS DNA site
How it was run: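 Caulobacter ParB libraries with four specificity codons randomised were screened by bacterial one-hybrid selection in the E. coli USO strain, using a HIS3 reporter whose site lies 19 bp from the promoter. Selection ran for 48 hours at 37°C on M9 lacking histidine, with 0.1 mM IPTG and 5 mM 3-AT. Plasmids were Illumina-sequenced before and after selection, three replicate libraries were pooled, and variants with under 10 reads were dropped. Fitness is the log change in each variant's read ratio to wild type, rescaled against the cognate and non-cognate sites.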

one-hybrid fitness for binding NBS DNA, 0.282:
QCGH

one-hybrid fitness for binding NBS DNA, 0.212:
QMCY

one-hybrid fitness for binding NBS DNA, 0.849:
KRKR

one-hybrid fitness for binding NBS DNA, 0.635:
RARR

one-hybrid fitness for binding NBS DNA, ≤ 0.2:
TWKV
TPSL
PFVG
HHGY
HAKT
RTCP
FATW
ALFC
CYAT
AMAN
HYTA
TWEE
RYHH
VTTR
QDPS
NSKT
PGLS
DQNL
SLKQ
ACLY
RWAQ
TPFD
STNQ
CYPR
HPPE
TFPS
ASAL
ESIP
RVTC
PAES
RSLE
GNDK
MNHL
PTPP
ARWL
SFFV
ASHL
DCNS
SHIT
TSVI
QCHM
SIVR
SGNT
CPVS
VHVF
HVKN
PALH
DFMA
FNFR
WAHR
LEQR
PGQR
IQTR
YEYG
YTSR
HVFI
PSEM
CKSA
LDVF
HLPR
SSML
GMFN
TLEL
ELRT
TCFA
MDSF
AQET
KTDC
PSAW
QLGD
CKTS
QFSF
AYCL
ELGN
QGPK
AELD
RFFF
PMAK
AGQI
QNNE
ELEV
NEKG
KSWC
PITP
FQCR
VPEQ
HCTQ
PEVV
ETQY
RWMA
LFCV
FLIY
VEKK
QVNM
RAQG
MAPF
EVKC
WVVS
PIRT
DFNY
NIVS
RLEQ
VSEM
TWPS
NPFS
RDYC
NRLI
MIYY
MYTT
VPQT
KGTT
CNLW
CNKA
VKKC
DSSS
AINL
FESV
VPHT
YMHG
IAQC
QLEL
PPCM
RSPQ
THNM
MFPR
TWTN
PEKC
PDQD
CRID
AIWG
NSMD
PDRA
SYIR
LTMS
MKWM
NQNG
MTGT
NSRH
IQFR
DFYS
YYAK
PWVA
PREA
RTEE
RMRG
RLHE
KKKA
DNPT
EFLR
IPWG
QFRW
KLAL
FARH
RIVI
KPKH
VSVW
AENR
ISKA
DEVS
NWSV
QRIE
EFHC
HTSF
PTDN
LPCL
LVHQ
NVIS
HHMG
QYLY
LNLV
IHDR
DNAG
TYTF
QTQW
TEAT
KDKY
DKGL
PGQY
RSLQ
WQQT
AENE
ETPY
PVAT
AQSR
TRYK
TYIT
LVSD
HLMY
ATGT
KLMY
RPPY
CGGA
KTTT
VPWG
RNRI
KKDL
LRCC
MAPI
THHI
MIAG
WLAS
KEGL
HGWG
NVTK
QCLK
QFAG
LYVT
RTDY
QCCF
NWPM
RAMM
ESSY
FDLR
DIAW
VLPL
ARKG
GKDG
DLIG
YPVR
EAAC
VPLH
FPYT
RVAH
PDRV
CPVC
KVCE
VKAV
VVKP
LSGY
QNLP
QFIG
SAEI
DVRM
IRWY
TLAF
IATC
CYVF
YIYF
RMLD
PGFS
GRYG
GHCG
GMKF
VDRF
SEEV
LIFS
SEAC
LRHA
GTWD
TDKV
MNQL
ISGG
QLMY
SNLI
SFAN
YHSD
LQNT
PGFG
VGYG
YLHN
VRQH
PLRF
GCKG
AAQI
KKRP
CATP
HYHT
TFPH
IRQE
VNLN
QAPS
LGWM
ISGC
PSRN
VQWC
RGTK
QDDR
DEMS
FHER
HPVV
MDTV
PAWV
YEQR
RMCD
CRPL
RHDH
TKLQ
CVKA
EVLA
CTYS
WCNR
MRME
KLKP
MGHG
RPTK
HGPM
TTNE

one-hybrid fitness for binding NBS DNA, 0.26:
QRMD

one-hybrid fitness for binding NBS DNA, 0.339:
QLRQ

one-hybrid fitness for binding NBS DNA, 0.262:
RREY

one-hybrid fitness for binding NBS DNA, 0.246:
RKQY

one-hybrid fitness for binding NBS DNA, 0.245:
KKGR

Source: a collection of fitness landscapes (doi:10.1016/j.celrep.2020.107928)
